The assay addresses T1, R. norvegicus MCT1 (F360C) (UniProt P36035+P53987, F360C).
T1 sequence (P36035+P53987 with tags, fused parts or gaps P53987:F360C): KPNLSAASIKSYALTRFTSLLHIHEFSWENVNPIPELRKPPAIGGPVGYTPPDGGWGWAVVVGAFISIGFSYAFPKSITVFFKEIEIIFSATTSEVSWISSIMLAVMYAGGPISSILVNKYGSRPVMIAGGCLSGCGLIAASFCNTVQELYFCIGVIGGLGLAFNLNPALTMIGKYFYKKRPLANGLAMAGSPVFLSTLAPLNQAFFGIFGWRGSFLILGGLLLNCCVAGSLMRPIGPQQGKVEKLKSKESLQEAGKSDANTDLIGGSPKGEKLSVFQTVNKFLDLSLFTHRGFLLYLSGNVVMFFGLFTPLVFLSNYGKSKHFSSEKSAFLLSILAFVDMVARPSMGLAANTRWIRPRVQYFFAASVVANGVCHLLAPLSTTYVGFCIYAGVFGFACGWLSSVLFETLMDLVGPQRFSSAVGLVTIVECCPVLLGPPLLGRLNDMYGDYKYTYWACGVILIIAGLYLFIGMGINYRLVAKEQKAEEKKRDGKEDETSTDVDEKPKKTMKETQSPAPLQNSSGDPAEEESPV
The assay is classed as cell-based.

Values joined by “and” are separate entries in the source; they are usually repeats but may differ in a detail not shown here. Equal entries are not always repeated. Structures can show the parent of a compound that is named as a salt. Where two headings read alike, the source gives them in different places.

`COc1c(O)cc2oc3cc(O)c(CC=C(C)C)c(O)c3c(=O)c2c1CC=C(C)C` [alpha-mangostin] showed a Day1 of 0.3553, a Day2 of 0.861, a Fraction of 0.4127 and an Offtarget_sub of 0.2019. The compound also had a Percent of 51.3584% and a Z.score of -4.281.
In the case of `CN1C(C(=O)Nc2ccccn2)=C(O)c2sc(Cl)cc2S1(=O)=O` [Lornoxicam], the “Percent AZD3965” value is listed as 3.795% and the Z-score was -0.2876.
As to `CSc1nc2cc(Cl)c(Oc3cccc(Cl)c3Cl)cc2[nH]1` [TRICLABENDAZOLE], the Day1 worked out at 0.2135 and the Day2 was 0.794. Also, under “10 μM”, the Fraction is 0.2689, the “Percent AZD3965” value was 78.824% and the Z.score was -3.978.
As to `O=C(O)[C@]1(Cc2cccc(Nc3nccs3)n2)CC[C@@H](Oc2cccc(Cl)c2F)CC1` [MK-5108 (VX-689)], the Day1 is 0.2415, the Day2 is recorded as 0.7782, the Fraction amounted to 0.3103 and the “Percent AZD3965” value is 70.5035%. Also, the Z.score is given as -3.675.
Compound `CCOC(=O)Oc1c(OC)cc(C(=O)O[C@@H]2C[C@@H]3CN4CCc5c([nH]c6cc(OC)ccc56)[C@H]4C[C@@H]3[C@H](C(=O)OC)[C@H]2OC)cc1OC` [Syrosingopine] yielded a Day1 of 0.1298, a Day2 of 0.7758, a Fraction of 0.1673 and an Offtarget_sub of -0.0159. Moreover, the Z.score is -6.507.
Take `NC(=O)Cc1cccc(C(=O)c2ccccc2)c1N` [Nepafenac]: the “Percent AZD3965” value was 3.929% and the Z-score was -0.1285.
In the case of `Nc1c2ccccc2nc2ccccc12` [AMINACRINE], the Day1 worked out at 0.4189, the Day2 turned out to be 0.8675, the Fraction came out at 0.4829 and the “Percent AZD3965” value is recorded as 41.534%. This compound came in with a Z.score of -3.143.
For the compound `O=C(/C=C/c1ccccc1)c1ccc(O)cc1` [4'-HYDROXYCHALCONE], the Day1 was found to be 0.3202 and the Day2 worked out at 0.7945. Besides, where the note is “10 μM”, the Fraction stood at 0.403, the “Percent AZD3965” value stood at 53.1668% and the Z.score is on record as -4.432.
Take `C=CC[C@@H]1/C=C(\C)C[C@H](C)C[C@H](OC)[C@H]2O[C@@](O)(C(=O)C(=O)N3CCCC[C@H]3C(=O)O[C@H](/C(C)=C/[C@@H]3CC[C@@H](O)[C@H](OC)C3)[C@H](C)[C@@H](O)CC1=O)[C@H](C)C[C@@H]2OC` [Tacrolimus]: the Day1 was 0.3533 and 0.2693; the Day2 is 0.8731 and 0.9365; the Fraction was 0.4047 and 0.2876; the Offtarget_sub is recorded as 0.2062. Further, the “Percent AZD3965” value is 71.9076%.
On to `O=c1c(O)c(-c2ccc(O)c(O)c2)oc2cc(O)cc(O)c12` [Quercetin], for which the Day1 is reported as 0.2177, the Day2 is recorded as 0.8165, the Fraction amounted to 0.2666 and the Offtarget_sub was found to be 0.0644. The compound further yielded a Percent of 79.1565% and a Z.score of -5.348.
On to `CCCc1c(-c2ccc(O)cc2)nn(-c2ccc(O)cc2)c1-c1ccc(O)cc1`, for which, for the setting “10 μM”, the Fraction came to 0.1484, the “Percent AZD3965” value is 98.6204% and the Z.score was -5.549.
Compound `CO[C@H]1C[C@@H]2CC[C@@H](C)[C@@](O)(O2)C(=O)C(=O)N2CCCC[C@H]2C(=O)O[C@H]([C@H](C)C[C@@H]2CC[C@@H](OC(=O)C(C)(CO)CO)[C@H](OC)C2)CC(=O)[C@H](C)/C=C(\C)[C@@H](O)[C@@H](OC)C(=O)[C@H](C)C[C@H](C)/C=C/C=C/C=C/1C` [Temsirolimus] returned a Day1 of 0.0823 and a Day2 of 0.2915. Also, for the setting “10 μM”, the Fraction came to 0.2823, the “Percent AZD3965” value was found to be 70.7028% and the Z.score is recorded as -3.514.
Compound `c1ccc2c(c1)Nc1ccccc1S2` [Phenothiazine] displayed a Day1 of 0.4688, a Day2 of 0.8488, a Fraction of 0.5523 and an Offtarget_sub of 0.3075. The compound further displayed a Percent of 31.7015% and a Z.score of -3.813.
On to `COc1ccc(-c2coc3cc(O)cc(O)c3c2=O)cc1` [BIOCHANIN A], for which, under “10 μM”, the Fraction is given as 0.1878, the “Percent AZD3965” value is on record as 92.5667% and the Z.score was -5.703.
Take `COc1ccc(-c2coc3cc(O)cc(O)c3c2=O)cc1` [Biochanin A]: the Day1 is on record as 0.1519, the Day2 turned out to be 0.809, the Fraction worked out at 0.1878 and the Percent is 92.5667%. This compound also had a Z.score of -5.703.
The matching figures for `COC1=C(CC=C(C)C)C(=O)c2ccccc2C1=O` [Lapachol methyl ester]: 0.1932, 0.7464, 0.2588, 79.1097% and -4.874.
For the compound `CCN(CC)CCNC(=O)c1c(C)[nH]c(/C=C2\C(=O)Nc3ccc(F)cc32)c1C.O=C(O)C[C@H](O)C(=O)O` [Sunitinib Malate], the Day1 came out at 0.1757, the Day2 is on record as 0.8667, the Fraction is on record as 0.2027 and the Offtarget_sub is 0.0304. Also, the “Percent AZD3965” value was 88.6606% and the Z.score is on record as -4.054.
On to `CCC(C)n1ncn(-c2ccc(N3CCN(c4ccc(OC[C@H]5CO[C@](Cn6cncn6)(c6ccc(Cl)cc6Cl)O5)cc4)CC3)cc2)c1=O` (some centres unmarked) [Itraconazole (Sporanox)], for which the Day1 came out at 0.1402, the Day2 amounted to 0.7721, the Fraction worked out at 0.1816 and the “Percent AZD3965” value stood at 94.034%. The Z.score is reported as -3.846.
For `COc1ccc([C@@H](C)C(=O)c2ccc(O)cc2O)cc1` [ANGOLENSIN (R)], under “10 μM”, the Fraction is listed as 0.4554, the “Percent AZD3965” value is reported as 43.3447% and the Z.score is listed as -3.613.
Consider `N.N.N.N.N.N.N.N.N.N.N.N.N.N.[Cl-].[Cl-].[Cl-].[Cl-].[Cl-].[Cl-].[O-2].[O-2].[Ru+3].[Ru+3].[Ru+4]` [Ruthenium red], for which the Day1 is given as 0.2225, the Day2 is 0.8168, the Fraction is recorded as 0.2724 and the “Percent AZD3965” value stood at 78.0937%. The Z.score is given as -5.277.
`O=C1C[C@@H](c2ccc(O)cc2)Oc2cc(O)cc(O)c21` [Naringenin] gave a Day1 of 0.2992, a Day2 of 0.8317, a Fraction of 0.3597 and a Percent of 61.2861%. Further, the Z.score is given as -5.108.
Consider `CC(=O)Nc1ccc(OC(=O)c2ccccc2O)cc1` [Acetaminosalol], for which the “Percent AZD3965” value is given as -5.36% and the Z-score was 0.2703.
For `Oc1ccc2ccccc2c1SSc1c(O)ccc2ccccc12` [IPA-3], the Day1 is 0.0446, the Day2 came to 0.4685, the Fraction worked out at 0.0952 and the “Percent AZD3965” value is 111.095%. The Z.score is listed as -5.788.
Regarding `Cc1ccc(Cl)c(Nc2ccccc2C(=O)[O-])c1Cl.[Na+]` [Meclofenamate Sodium], the “Percent AZD3965” value amounted to 5.567% and the Z-score is -0.3674.
For `Cc1cc(CC(=O)O)n(C)c1C(=O)c1ccc(Cl)cc1` [Zomepirac], in that order: 4.477% and -0.3392.
As for `CCC(C)n1ncn(-c2ccc(N3CCN(c4ccc(OC[C@H]5CO[C@](Cn6cncn6)(c6ccc(Cl)cc6Cl)O5)cc4)CC3)cc2)c1=O.Cl.Cl` (some centres unmarked) [ITRACONAZOLE HYDROCHLORIDE], the Day1 is 0.4825 and the Day2 worked out at 0.8348. Moreover, where the note is “10 μM”, the Fraction was found to be 0.578, the “Percent AZD3965” value is listed as 27.217% and the Z.score is on record as -3.273.
On to `CC(=O)[C@]1(O)Cc2c(O)c3c(c(O)c2[C@@H](O[C@H]2C[C@H](N)[C@H](O)[C@H](C)O2)C1)C(=O)c1ccccc1C3=O` [Idarubicin HCl], for which the Day1 is listed as 0.1044, the Day2 worked out at 0.8547, the Fraction amounted to 0.1221 and the “Percent AZD3965” value was found to be 106.268%. The Z.score is reported as -4.347.
Consider `COC1=C(CC=C(C)C)C(=O)c2ccccc2C1=O` [LAPACHOL METHYL ETHER], for which, for the setting “10 μM”, the Fraction was determined as 0.2588, the “Percent AZD3965” value worked out at 79.1097% and the Z.score is reported as -4.874.
On to `O=C1Nc2ccccc2/C1=C1/Nc2ccccc2/C1=N\O` [Indirubin-3'-oxime], for which the Day1 is 0.3455 and the Day2 came out at 0.8721. Besides, under “10 μM”, the Fraction is on record as 0.3962, the “Percent AZD3965” value was 47.0181% and the Z.score was -3.436.
In the case of `Cc1cc(NC(=O)C2=C(O)c3ccccc3S(=O)(=O)N2C)no1` [Isoxicam], the “Percent AZD3965” value was -10.8768% and the Z-score came out at 0.7102.
As for `c1ccc2c(c1)Nc1ccccc1S2` [PHENOTHIAZINE], under “10 μM”, the Fraction worked out at 0.5523, the “Percent AZD3965” value came out at 31.7015% and the Z.score is on record as -3.813.

Source of the values: PMC11637378, “Optogenetic screening of MCT1 activity implicates a cluster of non-steroidal anti-inflammatory drugs (NSAIDs) as inhibitors of lactate transport” (PLOS ONE, 2024).
